According to the supplement of paper PMC3334620:
Over roughly 33,000 sequences, “E-score (-0.5 to 0.5)” has its median near -0.013; the highest 2% begin near 0.3. The list shows a part of the results.

Biological target: T1, Msn1 (UniProt P22148)
T1 sequence: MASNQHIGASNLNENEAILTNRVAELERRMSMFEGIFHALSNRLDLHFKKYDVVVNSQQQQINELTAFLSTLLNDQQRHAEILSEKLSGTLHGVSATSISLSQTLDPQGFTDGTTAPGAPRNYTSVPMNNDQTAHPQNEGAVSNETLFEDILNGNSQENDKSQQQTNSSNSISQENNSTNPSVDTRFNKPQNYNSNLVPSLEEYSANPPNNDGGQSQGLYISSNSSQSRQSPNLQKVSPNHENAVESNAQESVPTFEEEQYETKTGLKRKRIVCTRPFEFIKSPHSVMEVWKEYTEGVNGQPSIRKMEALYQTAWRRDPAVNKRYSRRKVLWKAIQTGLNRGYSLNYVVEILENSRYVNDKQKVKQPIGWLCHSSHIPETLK
Assay: PBM E-score (8-mer binding enrichment) (E-score (-0.5 to 0.5)); higher = stronger / more preferred TF binding; most listed sequences are background and not binding sites
Conditions: protein concentration: 200 nM; construct: GST-full length
Method in brief: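 PURExpress in vitro transcription/translation supplied GST-tagged yeast transcription factors, either full-length or DNA-binding domain. Applied at about 100-200 nM to universal all-10-mer Agilent arrays double-stranded by primer extension, the bound protein was detected with fluorescent anti-GST. E-scores, modified Wilcoxon-Mann-Whitney statistics, were given by the Universal PBM Analysis Suite to ungapped eight-base words pooled with their reverse complements after masliner normalisation.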

| Sequence | PBM E-score |
| --- | --- |
| AGCTAAAG | 0.0177 |
| ACTGGGAT | -0.0208 |
| CGGCAGGC | -0.107 |
| AGGCAAGG | -0.205 |
| ACATATAC | 0.268 |
| ATGGACGG | 0.051 |
| CGTAATTA | 0.105 |
| CGTACGAC | 0.0832 |
| CAGATCAC | 0.0686 |
| GGAGTCGA | -0.137 |
| CGATGGAG | -0.0659 |
| GTGATTCA | 0.0352 |
| CGGCGGGC | -0.109 |
| GGTAGTTA | -0.213 |
| ACGCTGGG | -0.406 |
| AATGTCCG | 0.481 |
| AGACTGGA | 0.0289 |
| CACATGTG | -0.149 |
| CATCAACA | 0.0868 |
| TGAGCTCA | 0.0495 |
| CCTGGCTA | -0.0297 |
| CAGGAGTC | -0.119 |
| CACAAGGC | 0.0181 |
| CCCTCAGG | -0.273 |
| ACTGAAAT | 0.17 |

| Sequence | PBM E-score |
| --- | --- |
| ATGATGTC | 0.3 |
| AGTTACTG | -0.0503 |
| AGAAATGG | -0.076 |
| ACTCGGGA | 0.209 |
| CGATCCGC | -0.0465 |
| AGTATTAC | 0.0644 |
| AACGTGGC | -0.00246 |
| AAGCCCAA | -0.183 |
| CACAGAGA | -0.035 |
| CAACCGGA | 0.0644 |
| CAATCTAG | 0.131 |
| CACTAACG | -0.0567 |
| CCTTCCTC | -0.288 |
| CGGTAAAA | 0.171 |
| GACCTGCC | -0.13 |
| GAATATTC | 0.201 |
| GCGTGACC | -0.0242 |
| CGTGTCTC | 0.26 |
| AAGCAGAT | 0.00204 |
| ACGATACC | 0.0844 |
| TGCGATAA | 0.208 |
| CGTACACA | 0.0883 |
| ATGTCACC | 0.303 |
| ACTAGGCG | 0.0151 |
| CGAATCGA | 0.213 |

| Sequence | PBM E-score |
| --- | --- |
| TGCAAACA | -0.222 |
| ATCCCGCG | 0.156 |
| CGTTGCTC | -0.145 |
| GTTGTAGA | 0.111 |
| CGAAAAGA | 0.141 |
| ATGTAGAA | -0.0168 |
| CAATCAAG | 0.0312 |
| CACAGTTA | 0.142 |
| AAATCGCC | -0.132 |
| ATGAGTTG | 0.0774 |
| CTCGTGGA | 0.208 |
| GAGCGTGA | -0.149 |
| ATAAGGCA | -0.188 |
| GGGAGCTA | -0.213 |
| CGTACGCC | -0.0682 |
| ATGAAGAC | 0.231 |
| TAGCTGGA | -0.299 |
| AACTTTAA | 0.117 |
| AAGGATCA | 0.0436 |
| AAAAATTA | 0.253 |
| CTGTCACA | 0.0788 |
| GAAAGCCA | -0.0639 |
| ATGCGTGC | -0.0193 |
| GAATTGCC | 0.0969 |
| ATATTCCC | 0.0634 |

| Sequence | PBM E-score |
| --- | --- |
| GCAAAGGA | 0.0453 |
| ACATACCC | 0.136 |
| ATCAACTA | 0.175 |
| CAAGAGGA | 0.0591 |
| GACCAACC | -0.0749 |
| AAAGCAGA | 0.0657 |
| CGCCAGCG | -0.278 |
| AAGGTTTA | -0.234 |
| TTGTGAAA | 0.0831 |
| ACATGATC | -0.00083 |
| ACGGAAGC | 0.0447 |
| CACCCTGC | -0.236 |
| GCATTCCC | -0.188 |
| TACCTCAA | 0.145 |
| ATCTTCTA | 0.00981 |
| AAGGGTCA | -0.0391 |
| GATTTGGA | -0.0689 |
| CATAAATC | 0.115 |
| GAGTAACA | 0.135 |
| CCGGGAAA | 0.0237 |
| AAAGCATG | -0.0693 |
| ATTATGCA | -0.0208 |
| GGGAGGGA | -0.0955 |
| GCTCTCCC | -0.29 |
| AAAATATT | 0.156 |

| Sequence | PBM E-score |
| --- | --- |
| ATGTCCGA | 0.475 |
| AGTGGACC | -0.0955 |
| AATGGGGC | -0.106 |
| CAGGGATG | -0.213 |
| CTGTAACC | -0.00985 |
| CGATTTAA | 0.0978 |
| CATTAAAC | 0.182 |
| AAGGAAAC | -0.168 |
| ACCCAGTG | -0.173 |
| GACGGGAC | -0.014 |
| GAATCCAA | -0.116 |
| ACACACTA | 0.00839 |
| ATCCAACG | -0.0894 |
| AATGCATT | 0.244 |
| AACCATGA | 0.137 |
| CAGGTTAC | 0.0278 |
| CGGAGAGA | -0.0276 |
| CAGGATGG | -0.225 |
| AGGCGAAA | -0.11 |
| TAGCGATA | -0.0209 |
| GGGCGAAC | -0.00029 |
| CGGGCGAA | 0.0145 |
| GTCGGTTA | 0.0371 |
| ACATTGGC | -0.0178 |
| ACCGTCGT | 0.142 |

| Sequence | PBM E-score |
| --- | --- |
| CATCTTCC | 0.168 |
| CACCGGAC | 0.131 |
| CTATTTCA | 0.0975 |
| CTGGGCTA | -0.198 |
| AAATCATA | 0.167 |
| CGCCAGGA | -0.0604 |
| AGCGACGG | -0.0465 |
| ACGAGCAG | -0.0648 |
| AAGCGAAC | -0.129 |
| ATACGACC | -0.0618 |
| CGCGCTCA | -0.0403 |
| ACGCCGTA | -0.0147 |
| ACAACACT | 0.105 |
| CCAAATAC | -0.058 |
| CTCGGAAA | 0.115 |
| CTTGCAGA | -0.0567 |
| GGATGTTA | -0.0664 |
| CAAGCATA | -0.105 |
| CTATAATA | 0.016 |
| AGGGGTAT | -0.193 |
| GTCGCGGA | 0.121 |
| AACATAGC | 0.13 |
| CACATCCA | -0.0341 |
| GCATAGGC | -0.256 |
| CCAGCGGA | -0.171 |

| Sequence | PBM E-score |
| --- | --- |
| ACTAAATA | 0.293 |
| CGATAGCG | -0.188 |
| ACGCATGC | 0.0965 |
| CCCTCTTA | -0.0513 |
| CAACGTAC | 0.00734 |
| AAGGCTTG | -0.0455 |
| ACAGCCCT | -0.239 |
| GTTATCTA | -0.0355 |
| CGACATCG | 0.0697 |
| CTCTCACC | -0.131 |
| GACCAGCA | -0.0149 |
| AACACCGT | -0.0207 |
| AGGGTTCG | -0.165 |
| TCCTTGAA | 0.112 |
| ACGGATAT | 0.0858 |
| CCAGGTCC | -0.183 |
| TATTGACA | -0.0167 |
| AGCGCGAA | 0.0717 |
| CTGCGGAA | -0.0023 |
| GATATTCA | 0.124 |
| GCCCCCCC | -0.408 |
| AATTAGCT | -0.139 |
